According to PubChem BioAssay AID2528 (National Center for Advancing Translational Sciences (NCATS), 2010):
About 700 (0.2%) of roughly 350,000 compounds were called active. The shares of active, inactive and inconclusive entries below differ from those in the screen. Calls come from the whole dose curve; as a rule, active = well fitted inhibition curve with a large enough effect; inconclusive = small, poorly fitted or top-dose-only effect; inactive = flat fitted curve, though single readings scatter. No potency is given beside an inconclusive call; the fits are too rough.
Note: nearly all actives have a fitted effect of over 35% in size.
Potency is the fitted concentration of half-maximal effect; tags give direction and shape of the fitted curve.
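Throughout, for activity change, negative = inhibition: plate controls were vehicle for no effect and no enzyme for full effect.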

The molecules below were run against RecQ-like DNA helicase BLM (Homo sapiens) (UniProt P54132) (assay: qHTS Assay for Inhibitors of Bloom's syndrome helicase (BLM)). Conditions: recombinant BLM DNA unwinding, fluorescence dequenching; series mostly up to 56.1 µM.
Sequence of UniProt P54132 (P54132 whole entry, looked up): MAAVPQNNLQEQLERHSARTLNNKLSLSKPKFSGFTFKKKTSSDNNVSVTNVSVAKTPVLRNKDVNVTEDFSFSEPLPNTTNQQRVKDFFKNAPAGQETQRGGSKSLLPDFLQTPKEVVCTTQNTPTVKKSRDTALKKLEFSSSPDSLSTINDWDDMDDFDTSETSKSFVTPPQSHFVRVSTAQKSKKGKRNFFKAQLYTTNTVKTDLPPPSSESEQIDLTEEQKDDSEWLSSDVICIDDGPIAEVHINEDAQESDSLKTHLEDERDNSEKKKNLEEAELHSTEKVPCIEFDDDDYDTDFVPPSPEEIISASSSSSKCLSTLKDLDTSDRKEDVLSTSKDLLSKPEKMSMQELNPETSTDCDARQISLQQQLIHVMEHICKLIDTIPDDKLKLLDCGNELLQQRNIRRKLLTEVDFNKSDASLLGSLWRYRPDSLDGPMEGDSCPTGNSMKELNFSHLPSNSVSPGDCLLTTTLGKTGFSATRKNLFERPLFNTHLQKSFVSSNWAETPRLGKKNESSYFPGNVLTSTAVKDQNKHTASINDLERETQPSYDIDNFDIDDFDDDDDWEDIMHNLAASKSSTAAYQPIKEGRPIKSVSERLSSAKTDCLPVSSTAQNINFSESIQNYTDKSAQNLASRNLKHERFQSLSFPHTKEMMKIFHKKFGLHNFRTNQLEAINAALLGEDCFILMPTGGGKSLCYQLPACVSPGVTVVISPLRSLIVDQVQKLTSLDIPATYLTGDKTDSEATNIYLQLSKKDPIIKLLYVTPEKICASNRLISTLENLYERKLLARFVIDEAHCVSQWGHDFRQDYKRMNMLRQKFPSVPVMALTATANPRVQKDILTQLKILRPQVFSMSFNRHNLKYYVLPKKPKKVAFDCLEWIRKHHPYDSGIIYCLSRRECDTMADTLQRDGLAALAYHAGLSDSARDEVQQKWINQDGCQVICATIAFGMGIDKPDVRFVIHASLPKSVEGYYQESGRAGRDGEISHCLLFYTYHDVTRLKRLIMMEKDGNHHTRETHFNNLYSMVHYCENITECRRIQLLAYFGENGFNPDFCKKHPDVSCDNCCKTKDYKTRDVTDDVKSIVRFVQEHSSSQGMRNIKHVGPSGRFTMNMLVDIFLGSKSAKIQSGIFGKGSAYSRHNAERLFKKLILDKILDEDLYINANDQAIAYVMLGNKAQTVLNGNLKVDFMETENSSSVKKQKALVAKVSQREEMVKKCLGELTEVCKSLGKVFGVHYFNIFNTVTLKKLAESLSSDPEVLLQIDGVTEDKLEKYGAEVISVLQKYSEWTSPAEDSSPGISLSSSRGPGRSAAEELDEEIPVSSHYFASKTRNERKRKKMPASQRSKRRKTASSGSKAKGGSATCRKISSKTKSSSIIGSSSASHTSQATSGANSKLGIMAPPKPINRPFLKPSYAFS
With CCCCNC(=O)COC(=O)c1c2c(nc3ccccc13)CCC2 the Potency was inconclusive [inhibitor, single point]. With CCCNC(=O)c1cnc2sc(N3CCCCCC3)nn2c1=O the Potency was “inactive”. In the case of O=C(O)c1cc(Br)ccn1, the Potency is reported as “inactive”. With C#CCOCCOCCOCCNc1nc(N2CCN(C(=O)[C@H](Cc3cc4ccccc4[nH]3)n3cc([C@@H](N)Cc4ccc(O)cc4)nn3)CC2)nc(N2CCN(C(=O)[C@H](Cc3cc4ccccc4[nH]3)n3cc([C@@H](N)CC(C)C)nn3)CC2)n1 the Potency was inconclusive [inhibitor, single point]. In the case of CC(C)N1CCc2c(sc(NC(=S)NC(=O)c3ccccc3)c2C#N)C1, the Potency is reported as inconclusive [inhibitor, partial curve]. CC(=O)c1cccc(NC(=O)c2ccc3c(c2)c(C)c(C)n3Cc2ccc(Cl)cc2)c1 was tested, and the Potency was “inactive”. With COc1ccccc1N(/N=C1\Sc2ccccc2C1=O)C(C)=O the Potency was inconclusive [inhibitor, single point]. For O=C(N/N=C/C=C\c1ccco1)c1ccccn1, the Potency was inconclusive [inhibitor, single point]. With COc1ccc(Cl)cc1-c1nc(-c2ccc(NC(=O)c3cccs3)cc2)no1 the Potency was inconclusive [inhibitor, partial curve]. For CCC(=O)Nc1ccc(C(=O)NNC(=O)C(c2ccccc2)c2ccccc2)cc1, the Potency was inconclusive [inhibitor, single point]. With Cc1c(O)ccc(/C=N/Nc2nc(-c3cccnc3)nc3ccccc23)c1O the Potency was inconclusive [inhibitor, partial curve]. Nc1ccc(-c2nc3nc(N)nc(N)c3nc2-c2ccc(N)cc2)cc1 was tested, and the Potency was inconclusive [inhibitor, single point]. With O=C(CSc1nc(-c2ccccc2)nc2c1Cc1ccccc1O2)Nc1ccc(C(=O)O)cc1 the Potency was active: 10 µM. With Nc1ccc(Nc2ccccc2N)cc1 the Potency was inconclusive [inhibitor, single point]. With COCc1cc(=O)n2[nH]c(-c3ccsc3-n3c(C)ccc3C)cc2n1 the Potency was inconclusive [inhibitor, single point]. With O=C(O)c1ccccc1-c1c2cc(I)c(=O)c(I)c-2oc2c(I)c(O)c(I)cc12 the Potency was active: 28.2 µM. In the case of COc1ccc(C)cc1-n1nnnc1SCC(=O)NC(=O)NCc1ccco1, the Potency is reported as inconclusive [inhibitor, partial curve]. With O=C(NCCc1ccc(Cl)cc1)c1cc2c(s1)-c1ccccc1OC2 the Potency was inconclusive [inhibitor, partial curve]. In the case of O=C1Nc2ccccc2/C1=N\N=C\c1ccc(O)c(O)c1, the Potency is reported as inconclusive [inhibitor, single point]. O=C(NNc1nc(=O)c2cccnc2s1)c1ccccc1O was tested, and the Potency was “inactive”. In the case of O=C(Nc1ccc(F)cc1Cl)C1CCN(c2ncnc3c2nc2n3CCCCC2)CC1, the Potency is reported as “inactive”. For COc1ccc(C2CC(=O)c3cnc4c(-c5ccccc5)c(C)nn4c3C2)cc1OC (centres undefined), the Potency was “inactive”. C/C(=N\NC(=O)c1cc(O)ccc1O)c1cccc(NC(=O)c2ccc(Cl)cc2)c1 was tested, and the Potency was “inactive”. For O=[N+]([O-])c1cc2oc3c(c2c(C=NCc2ccncc2)c1O)CCCC3, the Potency was inconclusive [inhibitor, partial curve]. With Clc1ccccc1CSc1nnc(-c2ccco2)c(-c2ccco2)n1 the Potency was active: 14.1 µM. For CCOC(=O)C1C(=O)C=C(/C=C/c2ccc(N(C)C)cc2)CC1c1ccccc1 (centres undefined), the Potency was inconclusive [inhibitor, partial curve]. For CCOc1cc(/C=C2\SC(=S)N(C(C(=O)O)c3ccccc3)C2=O)ccc1O (centres undefined), the Potency was inconclusive [inhibitor, single point]. With CCOC(=O)CC1C(=O)NCCN1c1nc2c(C)cccn2c(=O)c1/C=C1\SC(=S)N(CC(C)C)C1=O (centres undefined) the Potency was inconclusive [inhibitor, single point]. For CCCC[C@@H](C)/C=C(C)/C=C(\C)C(=O)NC1=C[C@@](O)(/C=C/C=C/C=C/C(=O)NC2=C(O)CCC2=O)[C@@H]2O[C@@H]2C1=O, the Potency was inconclusive [inhibitor, single point]. With CN1/C(=C\C=C2/SC(=S)NC2=O)C(C)(C)c2ccccc21 the Potency was inconclusive [inhibitor, single point]. With O=c1ccc2c(OCCCCOc3ccccc3)c3ccoc3cc2o1 the Potency was “inactive”. For CC(C)(O)c1ccccc1CC[C@H](SCC1(CC(=O)O)CC1)c1cccc(/C=C/c2ccc3ccc(Cl)cc3n2)c1, the Potency was inconclusive [inhibitor, single point]. In the case of O=C(CSc1ncnc2sc3c(c12)CCC3)N1CCOCC1, the Potency is reported as inconclusive [inhibitor, single point]. For O=C(Nc1ccc2nc(-c3ccc4nc[nH]c4c3)[nH]c2c1)c1cccs1, the Potency was inconclusive [inhibitor, single point]. For CN(C)c1ccc(/C=C/c2ccc3ccccc3[n+]2C)cc1, the Potency was inconclusive [inhibitor, single point]. In the case of CC(=O)c1cc(O)c2ccccc2c1O, the Potency is reported as “inactive”. In the case of O=C1c2ccccc2C(=O)C12OC2c1cccc2ccccc12 (centres undefined), the Potency is reported as active: 17.8 µM. With CS(=O)(=O)N1N=C(c2ccccc2)CC1c1ccc2c(c1)OCO2 (centres undefined) the Potency was inconclusive [inhibitor, single point]. In the case of COc1cc([N+](=O)[O-])cc(/C=C2/SC(=S)N(Cc3ccccc3)C2=O)c1O, the Potency is reported as inconclusive [inhibitor, partial curve]. In the case of N#C/C(=C\c1ccc(-c2ccccc2[N+](=O)[O-])o1)C(=O)Nc1nc(-c2cccs2)cs1, the Potency is reported as inconclusive [inhibitor, single point]. COc1ccccc1CNC(=O)Cn1c(=O)oc2ccccc21 was tested, and the Potency was “inactive”. CC(C)=CCOc1ccc(/C=C/C(=O)c2ccc(OCC=C(C)C)cc2OCC(=O)O)cc1 was tested, and the Potency was active: 15.8 µM. With CCOC(=O)OCC1OC(C#Cc2ccccc2)C=CC1Oc1cccc(N(C)C)c1 (centres undefined) the activity change, negative = inhibition was inactive: -9.83% [at 12.4 µM]. For CC1=NN(c2ccccc2)C(=O)/C1=C/c1c(O)n(-c2ccc(F)c(Cl)c2)[nH]c1=O, the Potency was active: 17.8 µM. With Cc1ccc(SCC(c2ccccc2)N2CCN(CCc3ccccc3)CCC2=O)cc1 (centres undefined) the Potency was “inactive”. Nc1nc(Nc2ccccc2)nc(NCc2ccco2)c1[N+](=O)[O-] was tested, and the Potency was inconclusive [inhibitor, single point]. In the case of O=c1c2c(nc3cc(-c4ccccc4Cl)[nH]n13)CCS2, the Potency is reported as inconclusive [inhibitor, single point]. With O=C1C=C(Nc2ccc(O)cc2)C(=O)c2ccccc21 the Potency was inconclusive [inhibitor, partial curve]. For Cn1c(CCNC(=O)c2ccco2)nc2cc(NC(=O)c3ccco3)ccc21, the Potency was “inactive”. O=C(Nc1ccc(S(=O)(=O)Nc2nccs2)cc1)c1nn(-c2ccccc2)ccc1=O was tested, and the Potency was inconclusive [inhibitor, partial curve]. With CNc1ccc(Br)cc(C(=O)/C=C/c2cccc(OC)c2OC)c1=O the Potency was inconclusive [inhibitor, single point]. In the case of CC(=O)c1ccc(NC(=O)c2ccc3c(Cl)c4c(nc3c2)CCCC4)cc1, the Potency is reported as inconclusive [inhibitor, partial curve]. For O=C1/C(=C\c2cc(Cl)c(O)c(Cl)c2)SC(=S)N1Cc1ccccc1, the Potency was inconclusive [inhibitor, single point]. O=C(NC(=S)Nc1cccc2cnccc12)c1ccccc1 was tested, and the Potency was inconclusive [inhibitor, single point]. For Oc1ccc(NCc2ccc(OCc3ccccc3)cc2)cc1, the Potency was inconclusive [inhibitor, single point]. With CC(=O)N1c2ccc(S(=O)(=O)N3CCCC3C(=O)NCc3ccccc3Cl)cc2CC1C (centres undefined) the Potency was “inactive”. CCS(=O)(=O)c1c(S(=O)(=O)CC)c2cc(C(C)(C)C)ccn2c1C(=O)c1ccc(F)cc1 was tested, and the Potency was “inactive”. In the case of O=C(NC(=S)N1CCOCC1)c1ccccc1Cl, the Potency is reported as “inactive”. With COc1ccc2ccccc2c1C(=O)/C=C\c1ccoc1 the Potency was inconclusive [inhibitor, single point]. With Cc1cc(OCCn2cc(C(=O)c3cccs3)c3ccccc32)ccc1Cl the Potency was “inactive”. With N#Cc1c(-c2ccco2)c2c([nH]c1=S)CCCC2 the Potency was inconclusive [inhibitor, single point]. With CCCc1nc2c(=O)n(C)c(=O)nc-2n(C)n1 the Potency was active: 2.82 µM. With CC(=O)Nc1ccc2nc3c(=O)[nH]c(=O)[nH]c3nc2c1 the Potency was active: 11.2 µM. With N=C1/C(=C\c2ccc(-c3cccc(Cl)c3)o2)C(=O)N=C2SC=C(c3ccccc3)N12 the Potency was inconclusive [inhibitor, full curve]. For c1coc(-c2nc3ccccc3nc2-c2ccco2)c1, the Potency was active: 15.8 µM. For CC(=O)c1ccc(NC(=O)Cc2cccs2)cc1, the Potency was inconclusive [inhibitor, partial curve]. CN(C)c1ccc2c(-c3ccccc3)c3ccc(=[N+](C)C)cc-3oc2c1 was tested, and the Potency was active: 28.2 µM. O=C(N/N=C/c1cc2ccccc2nc1Cl)/C(=C/c1cccs1)NC(=O)c1ccccc1 was tested, and the Potency was inconclusive [inhibitor, single point]. In the case of CN(CC(=O)Nc1sccc1C#N)Cc1ccccc1, the Potency is reported as inconclusive [inhibitor, single point].
